The values that follow come from publication PMC6250432, “Catalytic competence, structure and stability of the cancer-associated R139W variant of the human NAD(P)H: quinone oxidoreductase 1 (NQO1)” (The FEBS journal, 2017).

This data set concerns the molecule itself. Description: SAXS; solutions of FAD-free (apo) and FAD-bound (holo) wild-type NQO1, 300 uM solute, in-house instrument; masses evaluated from the Porod volume; step: dimer of two protomers.

B1: human NAD(P)H:quinone oxidoreductase 1 (NQO1), wild type (enzyme)
chain: not shown
notes: NAD(P)H:quinone oxidoreductase 1 (NQO1), human, EC 1.6.99.2; Homodimeric flavoprotein; also called NQO1 WT; wild-type NQO1
Take B1: the stoichiometry N (commonly the number of molecules, sites or subunits per partner or assembly) was found to be 2.
